Experimental data: patent US20250270339A1 (Alector, published 2025)

T1: Cyno TfR ECD Avi-His (cynomolgus macaque, UniProt Q5RDH6 89-760 (Pongo abelii entry), biotin on the Avi tag (BirA) where captured on streptavidin)
T1 construct: also called Cyno TfR Avi-His; cyno TfR Avi-His
T1 chain: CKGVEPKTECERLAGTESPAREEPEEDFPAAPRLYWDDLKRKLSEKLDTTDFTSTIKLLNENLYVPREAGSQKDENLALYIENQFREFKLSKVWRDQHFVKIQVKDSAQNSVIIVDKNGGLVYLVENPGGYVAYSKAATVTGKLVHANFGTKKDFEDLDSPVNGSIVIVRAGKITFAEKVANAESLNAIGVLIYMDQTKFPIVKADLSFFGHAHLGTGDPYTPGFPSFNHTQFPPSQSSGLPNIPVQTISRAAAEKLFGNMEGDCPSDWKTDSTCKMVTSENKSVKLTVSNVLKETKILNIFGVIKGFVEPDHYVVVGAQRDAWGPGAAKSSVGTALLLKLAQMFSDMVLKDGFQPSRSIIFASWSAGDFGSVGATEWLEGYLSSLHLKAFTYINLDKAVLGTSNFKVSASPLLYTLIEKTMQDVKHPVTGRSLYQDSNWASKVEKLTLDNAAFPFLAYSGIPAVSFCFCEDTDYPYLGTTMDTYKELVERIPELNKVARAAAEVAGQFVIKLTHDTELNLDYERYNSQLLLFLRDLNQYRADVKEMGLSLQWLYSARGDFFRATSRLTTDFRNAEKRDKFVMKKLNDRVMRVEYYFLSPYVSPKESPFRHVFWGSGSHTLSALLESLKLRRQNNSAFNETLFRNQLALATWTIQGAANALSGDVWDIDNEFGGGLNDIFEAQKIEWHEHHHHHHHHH

T2: huTfR Apical Domain-Avi-His (human, biotin on the Avi tag (BirA) where captured on streptavidin)
T2 construct: also called huTfR apical Avi-His; hTfR Apical
T2 chain: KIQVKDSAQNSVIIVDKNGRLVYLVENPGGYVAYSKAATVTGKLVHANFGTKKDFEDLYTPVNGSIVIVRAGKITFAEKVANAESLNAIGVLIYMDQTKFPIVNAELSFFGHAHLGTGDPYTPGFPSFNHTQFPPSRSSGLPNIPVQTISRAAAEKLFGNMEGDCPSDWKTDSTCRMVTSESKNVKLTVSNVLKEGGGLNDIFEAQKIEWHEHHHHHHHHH

B1: TfR11 2+1 anti-TfR bispecific antibody (bispecific antibody, human IgG1, kappa)
heavy 1: EVRLLESGGGLVQPGGSLRLSCAASGFTFSNYAMGWVRQAPGKGLEWVSAISGSGGSTYYADSVKGRFTTSRDDSKNALYLQMNSLRAEDTAVYYCARGGPGWYAADVWGQGTTVTVSSASTKGPSVFPLAPSSKSTSGGTAALGCLVKDYFPEPVTVSWNSGALTSGVHTFPAVLQSSGLYSLSSVVTVPSSSLGTQTYICNVNHKPSNTKVDKKV[here human IgG1 Fc with changes without letters]GGGGSGGGGSGGGGSEVQLQQSGTVLARPGASVKMSCKASGYSFTSYWMHWVKQRPGQGLEWIGAIFPGNIDTIYNQKFKDKAKLTAVTSASTAYMELSSLTNEDSAVYFCTRLYYDYVWGAGTTVTVSSGGSEGKSSGSGSESKSTGGSDIKMTQSPSSMYASLGERVTLTCKASQDINSYLSWFQQKPGKSPKTLIYHVNRLVDGVPSRFSGSGSGQDYSLTISSLEYEDMGIYYCLQYDEFPYTFGGGTKLEIK
heavy 2: EVRLLESGGGLVQPGGSLRLSCAASGFTFSNYAMGWVRQAPGKGLEWVSAISGSGGSTYYADSVKGRFTTSRDDSKNALYLQMNSLRAEDTAVYYCARGGPGWYAADVWGQGTTVTVSS[here human IgG1 constant region with changes without letters]
light: DIQMTQSPSSLSASVGDRVTITCRASQSISSYLNWYQQKPGKAPKLLIYAASSLQSGVPSRFSGSGSGTDFTLTISSLQPEDFATYYCQQADLPAFAFGGGTKVEIKRTVAAPSVFIFPPSDEQLKSGTASVVCLLNNFYPREAKVQWKVDNALQSGNSQESVTEQDSKDSTYSLSSTLTLSKADYEKHKVYACEVTHQGLSSPVTKSFNRGEC
notes: 2+1
B2: TfR19 2+1 anti-TfR bispecific antibody (bispecific antibody, human IgG1, kappa)
heavy 1: EVRLLESGGGLVQPGGSLRLSCAASGFTFSNYAMGWVRQAPGKGLEWVSAISGSGGSTYYADSVKGRFTTSRDDSKNALYLQMNSLRAEDTAVYYCARGGPGWYAADVWGQGTTVTVSSASTKGPSVFPLAPSSKSTSGGTAALGCLVKDYFPEPVTVSWNSGALTSGVHTFPAVLQSSGLYSLSSVVTVPSSSLGTQTYICNVNHKPSNTKVDKKV[here human IgG1 Fc with changes without letters]GGGGSGGGGSGGGGSQVQLQQPGSELVRPGASVKLSCKASGYTFTSYWTHWVKQRPGQGLEWIGNIYPGSGSSNYDEKFKSKATLTVDTSSSTAYMQLSSLTSEDSAVYFCTRSSYYGNFDTMDNWGQGTSVTVSSGGSEGKSSGSGSESKSTGGSQIVLTQSPAIMSASPGEKVTMTCSASSSIRYMNWYQQKPVTSPKRWIYDTSTLASGVPARFSGSGSGTSYSLTISSMEAEDAATYYCHQRSSYPWTFGGGTKLEIK
heavy 2: EVRLLESGGGLVQPGGSLRLSCAASGFTFSNYAMGWVRQAPGKGLEWVSAISGSGGSTYYADSVKGRFTTSRDDSKNALYLQMNSLRAEDTAVYYCARGGPGWYAADVWGQGTTVTVSS[here human IgG1 constant region with changes without letters]
light: B1 light
notes: 2+1
B3: TfR12 2+1 anti-TfR bispecific antibody (bispecific antibody, human IgG1, kappa)
heavy 1: EVRLLESGGGLVQPGGSLRLSCAASGFTFSNYAMGWVRQAPGKGLEWVSAISGSGGSTYYADSVKGRFTTSRDDSKNALYLQMNSLRAEDTAVYYCARGGPGWYAADVWGQGTTVTVSSASTKGPSVFPLAPSSKSTSGGTAALGCLVKDYFPEPVTVSWNSGALTSGVHTFPAVLQSSGLYSLSSVVTVPSSSLGTQTYICNVNHKPSNTKVDKKV[here human IgG1 Fc with changes without letters]GGGGSGGGGSGGGGSQVQLQQPGSELVRPGASVKLSCKASGYTFTSYWMHWVKQRPGQGLEWIGNIYPGSGSSNYDEKFKNKATLTVDTSSNTAYMQLSSLTSEDSAVYYCTRSSYYGNFDTMDNWGQGTSVTVSSGGSEGKSSGSGSESKSTGGSQIVLTQSPAIMSASPGEKVTMTCSASSSIRYMNWYQQKPVTSPKRWIYDTSTLASGVPARFSGSGSGTSYSLTISSMEAEDAATYYCHQRSSYPWTFGGGTKLEIK
heavy 2: EVRLLESGGGLVQPGGSLRLSCAASGFTFSNYAMGWVRQAPGKGLEWVSAISGSGGSTYYADSVKGRFTTSRDDSKNALYLQMNSLRAEDTAVYYCARGGPGWYAADVWGQGTTVTVSS[here human IgG1 constant region with changes without letters]
light: B1 light
notes: 2+1; also called parental TfR12 scFv
B4: TfR27 2+1 anti-TfR bispecific antibody (bispecific antibody, human IgG1, kappa)
heavy 1: EVRLLESGGGLVQPGGSLRLSCAASGFTFSNYAMGWVRQAPGKGLEWVSAISGSGGSTYYADSVKGRFTTSRDDSKNALYLQMNSLRAEDTAVYYCARGGPGWYAADVWGQGTTVTVSSASTKGPSVFPLAPSSKSTSGGTAALGCLVKDYFPEPVTVSWNSGALTSGVHTFPAVLQSSGLYSLSSVVTVPSSSLGTQTYICNVNHKPSNTKVDKKV[here human IgG1 Fc with changes without letters]GGGGSGGGGSGGGGSQVQLQQPGSELVRPGASVKLSCKASGYTFTSYWMHWVKQRPGQGLEWIGNIYPGTGSTNYDEKFKSKATLTVDTSSSTAYMQLSSLTSEDSAVYYCTRSSYYGNFDTMDYWGQGTSVTVSSGGSEGKSSGSGSESKSTGGSQIFLTQSPAIMSASPGERVTMTCSASSSIRYMNWYQQKPGTSPKRWIYDTSELASGVPARFTGSGSGTSYSLTISSMEAEDAATYYCHQRSGYPWTFGGGTKLEIK
heavy 2: EVRLLESGGGLVQPGGSLRLSCAASGFTFSNYAMGWVRQAPGKGLEWVSAISGSGGSTYYADSVKGRFTTSRDDSKNALYLQMNSLRAEDTAVYYCARGGPGWYAADVWGQGTTVTVSS[here human IgG1 constant region with changes without letters]
light: B1 light
notes: 2+1

Target: T3, Full length human TfR on CHO cells (human, UniProt P02786)
T3 construct: also called CHO + huTfR; CHO + hTfR
T3 sequence (P02786 whole entry): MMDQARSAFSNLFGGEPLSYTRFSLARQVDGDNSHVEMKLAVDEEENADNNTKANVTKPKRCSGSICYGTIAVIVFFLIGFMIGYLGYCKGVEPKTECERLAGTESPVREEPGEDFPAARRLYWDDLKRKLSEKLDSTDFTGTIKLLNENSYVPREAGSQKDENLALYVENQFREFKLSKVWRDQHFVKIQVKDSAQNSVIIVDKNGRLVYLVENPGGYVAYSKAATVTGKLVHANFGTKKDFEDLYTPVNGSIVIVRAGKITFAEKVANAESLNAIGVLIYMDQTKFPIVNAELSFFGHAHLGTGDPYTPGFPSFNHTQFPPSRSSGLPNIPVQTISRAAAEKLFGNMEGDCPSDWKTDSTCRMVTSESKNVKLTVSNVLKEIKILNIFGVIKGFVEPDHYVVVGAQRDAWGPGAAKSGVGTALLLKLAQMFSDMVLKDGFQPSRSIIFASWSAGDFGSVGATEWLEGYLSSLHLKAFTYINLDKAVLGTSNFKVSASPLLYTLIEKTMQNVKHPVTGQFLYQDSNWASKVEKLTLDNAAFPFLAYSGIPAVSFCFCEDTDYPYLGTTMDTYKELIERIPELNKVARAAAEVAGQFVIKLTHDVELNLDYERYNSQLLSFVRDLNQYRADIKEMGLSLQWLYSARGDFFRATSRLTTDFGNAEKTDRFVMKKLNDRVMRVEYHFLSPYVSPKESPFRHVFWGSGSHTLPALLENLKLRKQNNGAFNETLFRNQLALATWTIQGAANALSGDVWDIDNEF
Assay: FACS MFI

fold over CHO parental | Binder
107 fold | B1
277 fold | B2
152 fold | B3
309 fold | B4

Target: T1, Cyno TfR ECD Avi-His
Assay: ELISA OD450

fold over isotype control | Binder
4 fold | B1
30 fold | B2
36 fold | B3
32 fold | B4

Target: T2, huTfR Apical Domain-Avi-His
Assay: ELISA OD450

fold over isotype control | Binder
44 fold | B1
41 fold | B2
40 fold | B3
42 fold | B4

Target: T4, Mouse TfR (muTfR) ECD Avi-His (mouse, UniProt Q62351, biotin on the Avi tag (BirA) where captured on streptavidin)
T4 construct: also called MuTfR Avi-His
Assay: ELISA OD450

fold over isotype control | Binder
1 fold | B1
1 fold | B2
1 fold | B3
1 fold | B4
